Test results as given in PMC10424150.
Substitutions are numbered along the chain they refer to. No constants are given. Whether binding was seen depends on the method and setting. Binding seen in cells or lysates may run through a third protein. Some binding calls cover weakened binding; strength is not graded here. For some of these results: Where a sequence is shown, tags or fusion partners need not be part of it.

Protein sequences, listed by entry. Tags and fused reporters are not part of them.
UniProt Q8NHY2: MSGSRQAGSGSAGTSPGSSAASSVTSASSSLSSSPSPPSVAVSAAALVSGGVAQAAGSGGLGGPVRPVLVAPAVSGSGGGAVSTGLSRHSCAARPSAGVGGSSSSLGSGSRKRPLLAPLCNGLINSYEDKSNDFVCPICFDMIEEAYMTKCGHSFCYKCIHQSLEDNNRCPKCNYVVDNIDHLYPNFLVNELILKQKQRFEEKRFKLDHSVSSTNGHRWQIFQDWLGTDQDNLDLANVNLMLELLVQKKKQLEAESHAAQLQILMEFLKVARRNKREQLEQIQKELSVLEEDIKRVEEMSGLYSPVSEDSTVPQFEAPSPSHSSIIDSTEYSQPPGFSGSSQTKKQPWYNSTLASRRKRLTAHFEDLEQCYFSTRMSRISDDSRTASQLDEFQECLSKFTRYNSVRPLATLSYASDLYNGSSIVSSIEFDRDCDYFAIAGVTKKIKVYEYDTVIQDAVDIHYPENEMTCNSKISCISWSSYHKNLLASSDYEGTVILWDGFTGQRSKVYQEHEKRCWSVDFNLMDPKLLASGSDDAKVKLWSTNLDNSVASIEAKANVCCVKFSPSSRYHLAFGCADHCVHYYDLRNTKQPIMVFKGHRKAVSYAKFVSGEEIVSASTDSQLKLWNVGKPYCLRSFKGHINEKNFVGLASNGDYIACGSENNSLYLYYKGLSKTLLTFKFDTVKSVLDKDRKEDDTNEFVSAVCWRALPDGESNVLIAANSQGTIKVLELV
UniProt Q14160: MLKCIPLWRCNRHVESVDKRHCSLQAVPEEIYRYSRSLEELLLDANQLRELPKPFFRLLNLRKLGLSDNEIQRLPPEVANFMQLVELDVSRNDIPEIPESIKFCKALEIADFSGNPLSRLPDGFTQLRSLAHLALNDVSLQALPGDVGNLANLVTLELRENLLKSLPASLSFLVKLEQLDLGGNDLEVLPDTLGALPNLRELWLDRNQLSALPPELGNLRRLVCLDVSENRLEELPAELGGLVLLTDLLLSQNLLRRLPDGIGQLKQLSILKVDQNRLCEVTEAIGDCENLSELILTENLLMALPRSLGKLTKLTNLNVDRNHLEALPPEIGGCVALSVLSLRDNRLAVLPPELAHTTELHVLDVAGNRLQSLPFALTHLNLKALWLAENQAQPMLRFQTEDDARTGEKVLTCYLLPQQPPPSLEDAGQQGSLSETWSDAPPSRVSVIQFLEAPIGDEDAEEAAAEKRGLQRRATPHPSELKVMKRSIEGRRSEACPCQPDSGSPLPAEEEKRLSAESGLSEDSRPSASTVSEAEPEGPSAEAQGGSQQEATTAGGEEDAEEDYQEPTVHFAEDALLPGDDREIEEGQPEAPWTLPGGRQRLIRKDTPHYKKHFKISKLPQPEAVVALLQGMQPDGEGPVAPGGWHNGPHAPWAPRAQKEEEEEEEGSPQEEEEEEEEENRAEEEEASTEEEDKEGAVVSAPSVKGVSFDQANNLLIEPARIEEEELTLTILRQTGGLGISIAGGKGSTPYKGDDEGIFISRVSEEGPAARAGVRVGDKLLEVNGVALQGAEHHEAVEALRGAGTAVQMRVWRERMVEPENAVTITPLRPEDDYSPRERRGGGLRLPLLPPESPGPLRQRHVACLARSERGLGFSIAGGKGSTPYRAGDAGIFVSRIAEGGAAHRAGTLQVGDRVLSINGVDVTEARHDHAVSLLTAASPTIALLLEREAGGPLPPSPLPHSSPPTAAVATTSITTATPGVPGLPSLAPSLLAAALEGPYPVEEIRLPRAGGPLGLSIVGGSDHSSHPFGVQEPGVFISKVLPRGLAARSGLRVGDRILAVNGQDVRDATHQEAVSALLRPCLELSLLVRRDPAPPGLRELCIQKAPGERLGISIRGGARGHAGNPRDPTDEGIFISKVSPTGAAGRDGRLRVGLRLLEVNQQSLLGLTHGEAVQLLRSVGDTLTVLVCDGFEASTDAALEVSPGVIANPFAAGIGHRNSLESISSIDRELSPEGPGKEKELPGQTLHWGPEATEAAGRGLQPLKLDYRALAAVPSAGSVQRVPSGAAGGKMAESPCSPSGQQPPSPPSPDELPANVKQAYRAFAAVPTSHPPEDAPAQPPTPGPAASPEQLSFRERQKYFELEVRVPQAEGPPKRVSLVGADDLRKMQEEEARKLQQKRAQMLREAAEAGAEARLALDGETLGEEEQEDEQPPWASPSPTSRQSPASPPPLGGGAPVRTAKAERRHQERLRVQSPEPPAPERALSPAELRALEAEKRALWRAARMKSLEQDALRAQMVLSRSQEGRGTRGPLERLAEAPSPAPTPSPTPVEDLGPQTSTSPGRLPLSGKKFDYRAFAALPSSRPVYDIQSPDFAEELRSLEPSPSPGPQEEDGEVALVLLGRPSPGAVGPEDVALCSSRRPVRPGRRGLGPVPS

Key:
Assay in all cases: co-IP; FLAG-fusion baits overexpressed in HEK293; sonicated lysates (20 mM Tris-HCl pH 7.5, 20 mM NaCl, 0.5% IGEPAL CA-630, 1 mM DTT, 1 mM EDTA, 0.1 mM MG-132) rotated with anti-FLAG M2 magnetic beads for 3 hours, washed 3 times; endogenous partners detected by Western blot
[1] = molecular target: FLAG-fusion protein of bacterial alkaline phosphatase (BAP) [phosphatase: P00634]
[2] = molecular target: T1, FLAG-TRAF7(1-127) (human) (UniProt Q6Q0C0)
T1 sequence: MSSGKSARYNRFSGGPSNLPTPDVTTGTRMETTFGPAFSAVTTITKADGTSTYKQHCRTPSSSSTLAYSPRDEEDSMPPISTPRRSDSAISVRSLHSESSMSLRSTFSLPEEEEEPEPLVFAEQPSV

[3] = molecular target: T2, FLAG-TRAF7(1-292) (human) (UniProt Q6Q0C0)
T2 sequence: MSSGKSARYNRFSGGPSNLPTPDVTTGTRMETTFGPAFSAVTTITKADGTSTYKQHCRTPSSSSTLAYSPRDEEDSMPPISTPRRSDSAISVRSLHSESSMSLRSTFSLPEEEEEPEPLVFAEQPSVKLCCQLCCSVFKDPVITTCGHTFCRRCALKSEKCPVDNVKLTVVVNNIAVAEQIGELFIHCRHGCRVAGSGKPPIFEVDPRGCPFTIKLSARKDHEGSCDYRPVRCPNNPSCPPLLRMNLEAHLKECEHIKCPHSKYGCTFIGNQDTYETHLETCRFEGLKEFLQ

[4] = molecular target: FLAG-COP1, human E3 ubiquitin ligase constitutive photomorphogenic 1 (human) (UniProt Q8NHY2)
[5] = molecular target: T3, FLAG-TRAF7 N520S, meningioma mutant of full-length human TRAF7 (human) (UniProt Q6Q0C0)
T3 sequence: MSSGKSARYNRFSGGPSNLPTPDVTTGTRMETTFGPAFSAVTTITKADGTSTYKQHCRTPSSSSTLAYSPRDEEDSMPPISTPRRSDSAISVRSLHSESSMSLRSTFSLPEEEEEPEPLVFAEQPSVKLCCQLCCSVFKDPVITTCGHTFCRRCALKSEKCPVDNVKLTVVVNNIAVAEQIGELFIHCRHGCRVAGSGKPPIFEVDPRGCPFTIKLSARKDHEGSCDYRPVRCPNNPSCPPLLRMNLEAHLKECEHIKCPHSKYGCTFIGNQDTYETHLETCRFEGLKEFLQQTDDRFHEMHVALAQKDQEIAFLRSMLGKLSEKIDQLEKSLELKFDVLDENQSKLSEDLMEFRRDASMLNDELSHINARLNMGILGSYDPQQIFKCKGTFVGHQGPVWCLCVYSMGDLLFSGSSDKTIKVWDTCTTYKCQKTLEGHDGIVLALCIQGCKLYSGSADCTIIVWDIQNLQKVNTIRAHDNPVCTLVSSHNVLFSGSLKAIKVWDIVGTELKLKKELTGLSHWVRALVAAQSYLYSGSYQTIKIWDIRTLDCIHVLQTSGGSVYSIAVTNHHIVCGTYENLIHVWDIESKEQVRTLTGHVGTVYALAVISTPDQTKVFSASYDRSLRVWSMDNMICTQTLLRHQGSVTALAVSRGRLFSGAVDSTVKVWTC

[6] = molecular target: T4, FLAG-TRAF7(121-292) (human) (UniProt Q6Q0C0)
T4 sequence: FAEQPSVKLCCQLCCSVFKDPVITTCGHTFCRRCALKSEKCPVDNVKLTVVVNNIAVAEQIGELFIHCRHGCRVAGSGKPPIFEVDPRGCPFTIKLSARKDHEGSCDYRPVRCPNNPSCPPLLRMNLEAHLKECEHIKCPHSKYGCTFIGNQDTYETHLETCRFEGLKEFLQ

[7] = molecular target: T5, FLAG-TRAF7, full-length human TRAF7 (human) (UniProt Q6Q0C0)
T5 sequence: T3 sequence with S520N

“planar cell polarity protein scribble homolog (SCRIB), endogenous (from UniProt Q14160 1-1655)” was tested, and the binding [1] was “no binding”, the binding [2] was “no binding” and the binding [3] was “binds”. The binding [4] was “no binding”, the binding [5] was “binds” and the binding [6] was “no binding”. The binding [7] was “binds”.
